Whole data set: some 33,000 sequences, median “E-score (-0.5 to 0.5)” near -0.021, cut for the highest 2% near 0.32. The list shows a part of the results.
Target: T1, Zap1 (UniProt P47043)
T1 sequence: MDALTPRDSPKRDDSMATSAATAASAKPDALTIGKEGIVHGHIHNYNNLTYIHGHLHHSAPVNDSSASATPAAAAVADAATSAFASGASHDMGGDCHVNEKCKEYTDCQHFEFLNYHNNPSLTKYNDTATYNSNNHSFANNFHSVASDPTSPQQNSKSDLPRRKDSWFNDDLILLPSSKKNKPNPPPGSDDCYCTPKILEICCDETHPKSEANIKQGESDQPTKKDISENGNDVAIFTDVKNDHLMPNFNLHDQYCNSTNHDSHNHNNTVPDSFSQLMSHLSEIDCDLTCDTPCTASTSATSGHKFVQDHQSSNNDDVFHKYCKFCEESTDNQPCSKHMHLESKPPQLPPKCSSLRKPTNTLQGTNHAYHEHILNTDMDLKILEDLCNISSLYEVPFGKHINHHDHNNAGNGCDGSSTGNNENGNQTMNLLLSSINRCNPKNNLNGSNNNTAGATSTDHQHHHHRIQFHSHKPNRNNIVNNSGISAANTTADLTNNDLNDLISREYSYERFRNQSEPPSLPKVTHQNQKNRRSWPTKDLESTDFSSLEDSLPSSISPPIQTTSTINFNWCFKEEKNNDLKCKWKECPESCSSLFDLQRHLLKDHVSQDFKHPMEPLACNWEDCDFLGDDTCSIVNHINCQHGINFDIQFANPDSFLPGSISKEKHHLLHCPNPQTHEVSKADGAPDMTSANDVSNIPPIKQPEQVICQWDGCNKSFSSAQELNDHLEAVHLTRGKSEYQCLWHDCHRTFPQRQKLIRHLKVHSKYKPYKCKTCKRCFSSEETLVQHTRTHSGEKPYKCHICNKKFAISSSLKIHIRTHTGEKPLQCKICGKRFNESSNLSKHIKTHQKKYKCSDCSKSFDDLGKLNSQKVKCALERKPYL
Assay: PBM E-score (8-mer binding enrichment) (E-score (-0.5 to 0.5)); higher = stronger / more preferred TF binding; most listed sequences are background and not binding sites
Settings: protein concentration: 200 nM; construct: GST-full length
Procedure: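 Universal 'all 10-mer' protein binding microarrays (Agilent AMADID 015681) probed with GST-tagged S. cerevisiae TFs (full-length or DBD) made by in vitro transcription/translation (PURExpress), about 100-200 nM. Bound TF was detected with fluorescent anti-GST. Each ungapped 8-mer (which stands for itself and its reverse complement) is scored by the PBM enrichment score (E-score), a modified Wilcoxon-Mann-Whitney statistic from -0.5 to +0.5, computed with the Universal PBM Analysis Suite. Scale: above 0.35 generally sequence-specific binding.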

Sequence	PBM E-score
CCGACAAC	0.0322
AGGTGGGC	-0.0375
AACCGTTC	0.103
ACCCACCT	0.213
AGTCGAAT	-0.146
CCTGTCAC	-0.0162
ATTTCGTC	0.113
TATAACAA	0.291
CCCGAGGG	0.307
GTGAAGTA	-0.0951
CGGGGAGC	-0.0824
ATTGCACA	0.0408
CGCACGAC	-0.18
GAGAAGTA	-0.09
CGTCACAG	0.113
ATAAGCGA	-0.0126
AGTGTGAT	-0.138
ACGCACAC	0.131
AATAGGTC	0.162
ACCGATTA	0.011
GAACAGGC	-0.307
CCTCCGAA	-0.188
CTGATTGA	0.0661
AATAGCGA	0.0197
GCCCGGAC	-0.223

Sequence	PBM E-score
AAACCACT	0.165
ACTCGCTA	-0.0232
AATACCTG	0.0483
GCACTTCC	-0.192
ATTCCCAC	-0.0158
AATGAGGC	0.0272
GCAATCAC	-0.0144
TAGGCAAA	-0.0671
AAAGGCGG	-0.0589
ACATTTAA	0.259
ATGTACGC	-0.153
ACGATATG	0.0602
GCCCGCAC	-0.202
GCACGGTA	0.0132
CTGACTCC	-0.289
ACGAGAAC	0.159
CTCTTAAC	0.11
AACGCTTG	-0.168
TATCAAGA	0.0816
ACCTGATC	-0.0818
ACAGAACC	0.0979
AAACCCTC	0.175
TGTATAAA	0.0902
CAGCAACC	0.0927
TACTATAA	0.249

Sequence	PBM E-score
ACTCGGAG	-0.136
CCGCTCCG	-0.17
CAGGCGCG	-0.199
AACGATGA	0.0347
GTTTACGA	0.0224
ACCCATAT	0.267
CGAGAGCG	-0.187
CTCGCGCA	-0.194
ACACGCCT	-0.16
AATGCGCG	0.00966
GTGGTAGA	-0.245
ATCTGCTA	-0.148
ACGTTGAC	-0.164
CAAGGCGG	-0.18
AGAAGCTA	-0.265
ATACCCAA	0.247
GTCCCCAA	0.0352
GCAGGTAA	0.173
AATGGCAC	-0.15
CCGTCGAC	-0.0425
CCCCAGGA	-0.128
GCTGATAC	-0.0997
AATGACCG	0.216
ACCGGTGG	-0.0578
GGACTCAC	-0.157

Sequence	PBM E-score
CCACAGAC	-0.00747
CGACCCCC	-0.304
GAGGTCAC	0.392
ACGAAAGC	-0.0332
ATGAACCG	-0.0519
CCCCGAAA	0.107
ACCTTAAG	0.269
AATCGTCG	-0.21
TAATCACA	0.0822
ATGCCCAA	-0.025
ACGCGATC	-0.143
CGAGGACA	-0.0989
AGTCTGAT	-0.0553
GAGACACC	-0.164
GGCTTCAC	-0.346
GCCGATGA	-0.28
CATATAGA	0.0361
ATCTGGTG	0.0645
CTAAACGA	0.0728
CTTCTCGA	-0.17
GGAAAGGA	-0.0553
AAGTGTGT	0.0267
GACCTAAC	0.171
AACGCCGG	-0.109
CGTCTATA	-0.122

Sequence	PBM E-score
ACAGTAGT	-0.159
GCGTAGAA	-0.195
CACGACCC	0.206
ACTGTGTG	-0.0788
AACCTAGT	0.161
ATTTTTAC	0.016
AGCTGCTG	-0.194
ATGTTGTA	0.0198
CCGTCAGA	-0.102
CCGCCGGC	-0.00276
ACTGAAAC	0.18
CTTTCCCC	-0.0608
ACACAAAA	0.259
GCAACGTA	-0.0702
GAGGAGTA	-0.119
CACACTTA	-0.0809
AGGCCTGA	-0.151
AGTGGCTG	-0.101
CTATGTAA	0.0968
ATCGAATG	-0.106
CGATCCAA	-0.00332
AGCACTAT	-0.174
CTAAAAGA	0.0186
AATAACGC	-0.0593
GCTTATCA	-0.0135

Sequence	PBM E-score
TATATTGA	0.155
ACAACATC	-0.112
ATCCGATC	0.0622
CCCTTAAG	0.335
AGTCTATC	-0.348
CTCGTGGC	0.0416
CCCCGATA	0.0649
GGTGAACC	0.0647
AACGGCCT	-0.0819
CCTAAGTA	0.214
CCGGTGTA	-0.0602
AGTTAGAA	0.0791
GGCTAACA	-0.0475
ACTCGTAC	-0.21
ATACCGAC	-0.111
ATTAACTA	0.0476
CCAACTGG	0.0919
ATATACCA	0.078
ATTAATGG	0.146
GCTGAGTA	-0.0287
CCATATAG	-0.0702
TAGGTGGA	-0.173
GGATCATA	-0.091
AAATATAC	0.163
CGTATGGA	0.05

Sequence	PBM E-score
CGACCAAA	0.224
GTTCTCCA	-0.0516
AACTAGTT	0.0252
AGAAGCTC	-0.108
CATAAGAG	-0.0365
AACGGTGG	0.0901
CATGCAGC	-0.102
AGAGAGGG	-0.274
GGAGTGCC	-0.0802
AAAGCTGC	-0.0979
ACCGGGCA	-0.00288
ATGCCTCG	-0.115
CCAAGATC	-0.0112
ATCTTCCC	-0.0623
AAATGTCT	-0.207
AATGAGCC	-0.226
GTCAATCA	-0.0255
CGCGTCCG	-0.112
ACGATGAC	-0.0774
GCCCGACA	-0.00925
AACCGATG	0.182
ACTGCACG	0.0724
CGCTCGTC	-0.285
ACGTTTCC	-0.157
CGTCCGCA	-0.158

Sequence	PBM E-score
GATGATTA	-0.104
CGCTCCAA	-0.192
GTTCTAAA	0.211
CGGAGTTA	0.0308
CCCCGAGA	0.0397
GCCTACAA	0.0857
AACACTTG	-0.0457
TCGAGGAA	-0.0701
AAACCGTC	0.0956
ACGTAAAC	-0.00614
TACTTCGA	0.0268
GGGCTAGA	-0.153
AATGCTAT	-0.00383
ACTCCTCC	-0.187
TCGAAAAA	0.141
AGGCATGA	-0.292
AAGCCTCA	-0.134
TCTCCTAA	0.0322
ACAACTAG	0.107
GGTTCCAA	0.249
AACAGCGC	-0.0206
AATAGGCT	-0.13
AAGACCCG	0.0601
GGGATAAC	0.0475
CCGAGCGA	-0.12

Sequence	PBM E-score
CAAATGCC	-0.192
CAGCGCCC	-0.293
CTAATTGC	0.0789
CCTGTTGC	0.0211
GTCGGCAA	-0.158
GGGTCTCA	-0.0213
AGCTGCAA	-0.211
ACCGACTA	-0.234
CGATTTGA	-0.0209
GGGTGGAC	-0.0732
GACCCCGA	0.244
GAACTCCC	-0.0452
GGAGCTTA	-0.0905
GGGCCTCA	0.0714
ACTTTATC	0.00981
CAAACGCC	-0.111
CAGACGAC	-0.285
ACGTTAGA	-0.0993
AAGTCACA	-0.034

Source: the supplement of paper PMC3334620
